Laboratory results reported in the supplement of paper PMC8728848.
The other results are listed elsewhere or left out.

Legend:
Assay in all cases: glycan array binding signal (z-score within array); higher = stronger binding
Conditions in all cases: glycan notation: IUPAC condensed, linker removed
[1] = molecular target: Fuc(a1-2)Gal
Summary of the method: (§1)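 The binding signal is a Z-score computed within each array and averaged over linkers. Arrays of the same protein sequence at different concentrations or buffers were also averaged together. Data originate from 3228 arrays in the Consortium for Functional Glycomics database, kept only where the protein sequence was available.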

[2] = molecular target: Fuc(a1-2)Gal(b1-3)GalNAc
Summary of the method: as §1

[3] = molecular target: Fuc(a1-2)Gal(b1-3)GalNAc(a1-3)[Fuc(a1-2)]Gal(b1-4)Glc
Summary of the method: as §1

[4] = molecular target: Fuc(a1-2)Gal(b1-3)GalNAc(a1-3)[Fuc(a1-2)]Gal(b1-4)GlcNAc
Summary of the method: as §1

[5] = molecular target: Fuc(a1-2)Gal(b1-3)GalNAc(b1-3)Gal
Summary of the method: as §1

[6] = molecular target: Fuc(a1-2)Gal(b1-3)GalNAc(b1-3)Gal(a1-4)Gal(b1-4)Glc
Summary of the method: as §1

[7] = molecular target: Fuc(a1-2)Gal(b1-3)GalNAc(b1-4)[Neu5Ac(a2-3)]Gal(b1-4)Glc
Summary of the method: as §1

[8] = molecular target: Fuc(a1-2)Gal(b1-3)GlcNAc
Summary of the method: as §1

[9] = molecular target: Fuc(a1-2)Gal(b1-3)GlcNAc(b1-2)Man(a1-3)[Fuc(a1-2)Gal(b1-3)GlcNAc(b1-2)Man(a1-6)]Man(b1-4)GlcNAc(b1-4)GlcNAc
Summary of the method: as §1

[10] = molecular target: Fuc(a1-2)Gal(b1-3)GlcNAc(b1-3)Gal(b1-4)Glc
Summary of the method: as §1

[11] = molecular target: Fuc(a1-2)Gal(b1-3)GlcNAc(b1-3)[Fuc(a1-3)[Gal(b1-4)]GlcNAc(b1-6)]Gal(b1-4)Glc
Summary of the method: as §1

[12] = molecular target: Fuc(a1-2)Gal(b1-3)[Fuc(a1-4)]GlcNAc
Summary of the method: as §1

[13] = molecular target: Fuc(a1-2)Gal(b1-3)[Fuc(a1-4)]GlcNAc(b1-2)Man(a1-3)[Fuc(a1-2)Gal(b1-3)[Fuc(a1-4)]GlcNAc(b1-2)Man(a1-6)]Man(b1-4)GlcNAc(b1-4)GlcNAc
Summary of the method: as §1

[14] = molecular target: Fuc(a1-2)Gal(b1-3)[Fuc(a1-4)]GlcNAc(b1-3)[Fuc(a1-3)[Gal(b1-4)]GlcNAc(b1-6)]Gal(b1-4)Glc
Summary of the method: as §1

[15] = molecular target: Fuc(a1-2)Gal(b1-3)[Fuc(a1-4)]GlcNAc(b1-3)[Gal(b1-4)GlcNAc(b1-6)]Gal(b1-4)Glc
Summary of the method: as §1

[16] = molecular target: Fuc(a1-2)Gal(b1-4)Glc
Summary of the method: as §1

[17] = molecular target: Fuc(a1-2)Gal(b1-4)Glc6S
Summary of the method: as §1

[18] = molecular target: Fuc(a1-2)Gal(b1-4)GlcNAc
Summary of the method: as §1

[19] = molecular target: Fuc(a1-2)Gal(b1-4)GlcNAc(b1-2)Man(a1-3)[Fuc(a1-2)Gal(b1-4)GlcNAc(b1-2)Man(a1-6)]Man(b1-4)GlcNAc(b1-4)GlcNAc
Summary of the method: as §1

[20] = molecular target: Fuc(a1-2)Gal(b1-4)GlcNAc(b1-3)Gal(b1-4)GlcNAc
Summary of the method: as §1

[21] = molecular target: Fuc(a1-2)Gal(b1-4)GlcNAc(b1-3)Gal(b1-4)GlcNAc(b1-3)Gal(b1-4)GlcNAc
Summary of the method: as §1

[22] = molecular target: Fuc(a1-2)Gal(b1-4)GlcNAc(b1-3)GalNAc
Summary of the method: as §1

[23] = molecular target: Fuc(a1-2)Gal(b1-4)GlcNAc6S
Summary of the method: as §1

[24] = molecular target: Fuc(a1-2)Gal(b1-4)[Fuc(a1-3)]GlcNAc
Summary of the method: as §1

[25] = molecular target: Fuc(a1-2)Gal(b1-4)[Fuc(a1-3)]GlcNAc(b1-2)Man(a1-3)[Fuc(a1-2)Gal(b1-4)[Fuc(a1-3)]GlcNAc(b1-2)Man(a1-6)]Man(b1-4)GlcNAc(b1-4)GlcNAc
Summary of the method: as §1

[26] = molecular target: Fuc(a1-2)Gal(b1-4)[Fuc(a1-3)]GlcNAc(b1-3)Gal(b1-4)[Fuc(a1-3)]GlcNAc
Summary of the method: as §1

[27] = molecular target: Fuc(a1-2)Gal(b1-4)[Fuc(a1-3)]GlcNAc(b1-3)Gal(b1-4)[Fuc(a1-3)]GlcNAc(b1-3)Gal(b1-4)[Fuc(a1-3)]GlcNAc
Summary of the method: as §1

[28] = molecular target: Fuc(a1-2)Gal6S(b1-4)Glc
Summary of the method: as §1

[29] = molecular target: Fuc(a1-2)Gal6S(b1-4)Glc6S
Summary of the method: as §1

[30] = molecular target: Fuc(a1-2)Gal6S(b1-4)GlcNAc
Summary of the method: as §1

[31] = molecular target: Fuc(a1-2)[Gal(a1-3)]Gal
Summary of the method: as §1

[32] = molecular target: Fuc(a1-2)[Gal(a1-3)]Gal(b1-3)GlcNAc
Summary of the method: as §1

[33] = molecular target: Fuc(a1-2)[Gal(a1-3)]Gal(b1-3)GlcNAc(b1-2)Man(a1-3)[Fuc(a1-2)[Gal(a1-3)]Gal(b1-3)GlcNAc(b1-2)Man(a1-6)]Man(b1-4)GlcNAc(b1-4)GlcNAc
Summary of the method: as §1

[34] = molecular target: Fuc(a1-2)[Gal(a1-3)]Gal(b1-4)Glc
Summary of the method: as §1

[35] = molecular target: Fuc(a1-2)[Gal(a1-3)]Gal(b1-4)GlcNAc
Summary of the method: as §1

[36] = molecular target: Fuc(a1-2)[Gal(a1-3)]Gal(b1-4)GlcNAc(b1-2)Man(a1-3)[Fuc(a1-2)[Gal(a1-3)]Gal(b1-4)GlcNAc(b1-2)Man(a1-6)]Man(b1-4)GlcNAc(b1-4)GlcNAc
Summary of the method: as §1

[37] = molecular target: Fuc(a1-2)[Gal(a1-3)]Gal(b1-4)[Fuc(a1-3)]GlcNAc
Summary of the method: as §1

[38] = molecular target: Fuc(a1-2)[Gal(a1-4)]Gal(b1-4)GlcNAc
Summary of the method: as §1

[39] = molecular target: Fuc(a1-2)[GalNAc(a1-3)]Gal
Summary of the method: as §1

[40] = molecular target: Fuc(a1-2)[GalNAc(a1-3)]Gal(b1-3)GalNAc(a1-3)[Fuc(a1-2)]Gal(b1-4)GlcNAc
Summary of the method: as §1

[41] = molecular target: Fuc(a1-2)[GalNAc(a1-3)]Gal(b1-3)GlcNAc
Summary of the method: as §1

[42] = molecular target: Fuc(a1-2)[GalNAc(a1-3)]Gal(b1-3)GlcNAc(b1-2)Man(a1-3)[Fuc(a1-2)[GalNAc(a1-3)]Gal(b1-3)GlcNAc(b1-2)Man(a1-6)]Man(b1-4)GlcNAc(b1-4)GlcNAc
Summary of the method: as §1

[43] = molecular target: Fuc(a1-2)[GalNAc(a1-3)]Gal(b1-4)Glc
Summary of the method: as §1

[44] = molecular target: Fuc(a1-2)[GalNAc(a1-3)]Gal(b1-4)GlcNAc
Summary of the method: as §1

[45] = molecular target: Fuc(a1-2)[GalNAc(a1-3)]Gal(b1-4)GlcNAc(b1-2)Man(a1-3)[Fuc(a1-2)[GalNAc(a1-3)]Gal(b1-4)GlcNAc(b1-2)Man(a1-6)]Man(b1-4)GlcNAc(b1-4)GlcNAc
Summary of the method: as §1

[46] = molecular target: Fuc(a1-2)[GalNAc(a1-3)]Gal(b1-4)GlcNAc(b1-3)Gal(b1-4)GlcNAc
Summary of the method: as §1

[47] = molecular target: Fuc(a1-2)[GalNAc(a1-3)]Gal(b1-4)GlcNAc(b1-3)Gal(b1-4)GlcNAc(b1-3)Gal(b1-4)GlcNAc
Summary of the method: as §1

[48] = molecular target: Fuc(a1-2)[GalNAc(a1-3)]Gal(b1-4)[Fuc(a1-3)]GlcNAc
Summary of the method: as §1

[49] = molecular target: Fuc(a1-2)[GalNAc(a1-4)]Gal(b1-4)GlcNAc
Summary of the method: as §1

[50] = molecular target: Fuc(a1-2)[GalNAc(b1-3)]Gal
Summary of the method: as §1

[51] = molecular target: Fuc(a1-3)GlcNAc
Summary of the method: as §1

[52] = molecular target: Fuc(a1-3)[Gal(b1-4)]Glc6S
Summary of the method: as §1

[53] = molecular target: Fuc(a1-3)[Gal(b1-4)]GlcNAc
Summary of the method: as §1

[54] = molecular target: Fuc(a1-3)[Gal(b1-4)]GlcNAc(b1-2)Man(a1-3)[Fuc(a1-3)[Gal(b1-4)]GlcNAc(b1-2)Man(a1-6)]Man(b1-4)GlcNAc(b1-4)GlcNAc
Summary of the method: as §1

[55] = molecular target: Fuc(a1-3)[Gal(b1-4)]GlcNAc(b1-3)Gal(b1-3)[Fuc(a1-4)]GlcNAc
Summary of the method: as §1

[56] = molecular target: Fuc(a1-3)[Gal(b1-4)]GlcNAc(b1-3)GalNAc
Summary of the method: as §1

[57] = molecular target: Fuc(a1-3)[Gal(b1-4)]GlcNAc(b1-4)Gal(b1-4)[Fuc(a1-3)]GlcNAc
Summary of the method: as §1

[58] = molecular target: Fuc(a1-3)[Gal(b1-4)]GlcNAc(b1-4)Gal(b1-4)[Fuc(a1-3)]GlcNAc(b1-4)Gal(b1-4)[Fuc(a1-3)]GlcNAc
Summary of the method: as §1

[59] = molecular target: Fuc(a1-3)[Gal(b1-4)]GlcNAc(b1-6)[Gal(b1-3)GlcNAc(b1-3)]Gal(b1-4)Glc
Summary of the method: as §1

[60] = molecular target: Fuc(a1-3)[Gal(b1-4)]GlcNAc6S
Summary of the method: as §1

B1: cupB6 (Pseudomonas aeruginosa), Q02SP7 (protein)
chain: MSMRLFPGRVSLRRRPGAQARQALVLGLCCLTGGQAWALNEVALNCSFGNGKGLPWRVVNELTSGTAKGTVLFARPVSLFLSYKPQASQEAHELVLGGNWSGVGYPGPYGTVASDVKGIGYRISVDAQDGVKRVIPVDNQPHALDKRVTSFSGSTTSDYLQELVLTVDPGELPAGDLKVTSVSGSATLNLWAVDRLKGEASIGSVLAVPADNYPTGVCRKPYSLIGPASIAIGGGPPPPPIPKKCKVEVGREINVKLGSVALKNFPRVNDTSTERSFDISLSECAALAKPEIAFRDKYVSAQQADPTILSLKSGGAAGFGIVVKNGLDQQRIRFDGTPYPMRRVGDSADLPLSAAYIRIGAEGELKAGVADGAAEFTFTFP
glycan array binding signal (z-score) [1]: 0.029 | glycan array binding signal (z-score) [2]: 0.085 | glycan array binding signal (z-score) [3]: -0.062 | glycan array binding signal (z-score) [4]: 0.001 | glycan array binding signal (z-score) [5]: 0.091 | glycan array binding signal (z-score) [6]: -0.202 | glycan array binding signal (z-score) [7]: -0.175 | glycan array binding signal (z-score) [8]: 0.125 | glycan array binding signal (z-score) [9]: -0.047 | glycan array binding signal (z-score) [10]: -0.163 | glycan array binding signal (z-score) [11]: 0.052 | glycan array binding signal (z-score) [12]: 19.6 | glycan array binding signal (z-score) [13]: 0.096 | glycan array binding signal (z-score) [14]: -0.084 | glycan array binding signal (z-score) [15]: 0.133 | glycan array binding signal (z-score) [16]: -0.029 | glycan array binding signal (z-score) [17]: 0.336 | glycan array binding signal (z-score) [18]: -0.089 | glycan array binding signal (z-score) [19]: 0.022 | glycan array binding signal (z-score) [20]: 0.239 | glycan array binding signal (z-score) [21]: -0.014 | glycan array binding signal (z-score) [22]: -0.188 | glycan array binding signal (z-score) [23]: -0.228 | glycan array binding signal (z-score) [24]: -0.107 | glycan array binding signal (z-score) [25]: 0.275 | glycan array binding signal (z-score) [26]: 0.023 | glycan array binding signal (z-score) [27]: 0.007 | glycan array binding signal (z-score) [28]: 0.068 | glycan array binding signal (z-score) [29]: -0.207 | glycan array binding signal (z-score) [30]: 0.081 | glycan array binding signal (z-score) [31]: -0.026 | glycan array binding signal (z-score) [32]: 0.045 | glycan array binding signal (z-score) [33]: -0.057 | glycan array binding signal (z-score) [34]: -0.064 | glycan array binding signal (z-score) [35]: 0.016 | glycan array binding signal (z-score) [36]: -0.008 | glycan array binding signal (z-score) [37]: 0.027 | glycan array binding signal (z-score) [38]: -0.244 | glycan array binding signal (z-score) [39]: -0.125 | glycan array binding signal (z-score) [40]: -0.021 | glycan array binding signal (z-score) [41]: 0.154 | glycan array binding signal (z-score) [42]: -0.074 | glycan array binding signal (z-score) [43]: -0.018 | glycan array binding signal (z-score) [44]: -0.142 | glycan array binding signal (z-score) [45]: 0.216 | glycan array binding signal (z-score) [46]: 0.097 | glycan array binding signal (z-score) [47]: 0.162 | glycan array binding signal (z-score) [48]: 0.149 | glycan array binding signal (z-score) [49]: -0.212 | glycan array binding signal (z-score) [50]: -0.269 | glycan array binding signal (z-score) [51]: -0.2 | glycan array binding signal (z-score) [52]: -0.171 | glycan array binding signal (z-score) [53]: -0.113 | glycan array binding signal (z-score) [54]: -0.088 | glycan array binding signal (z-score) [55]: 0.089 | glycan array binding signal (z-score) [56]: 0.027 | glycan array binding signal (z-score) [57]: 0.005 | glycan array binding signal (z-score) [58]: -0.156 | glycan array binding signal (z-score) [59]: 0.035 | glycan array binding signal (z-score) [60]: 0.17
